Measurements taken from US11542311B2, “Fusion protein, preparation method therefor and application thereof in preparing ophthalmic disease treatment, anti-inflammation and anti-tumor medicament” (JIANGSU RONGTAI BIOTECH CO., LTD., priority 2017, dated 2023).

Legend:
[1] = test system: IL-1β production by mouse peritoneal macrophages; assay: IL-1β production by mouse peritoneal macrophages (ELISA); assay type: cell-based; conditions: 48 h; for PI (%): IL-1β
Protocol: (1) IL-1β production: mice were intraperitoneally injected with 1 mL of broth medium containing 6% starch, and three days later, the mouse peritoneal macrophages were aseptically taken, washed twice with a 1640 medium, adjusted to the cell concentration of 2×10^6 cells/mL, inoculated into a 24-well culture plate, 1 mL/well, incubated for 3 h in a cell culture incubator, and shaken once every 30 min, so that the cells were allowed to adhere sufficiently. Then, the cells were washed twice with a culture liquid to remove un-adhered cells. […] After administration, the culture was continued for 48 h, the cells were centrifuged at 1000 r/min for 15 min. The supernatant was taken as a sample for testing activity of IL-1β.
(2) Determination of IL-1β content: the detection was performed by using mouse IL-1β enzyme-linked immunosorbent assay kit from R&D company. According to the instructions of the kit, the procedures were as follows: the reaction well for the test samples and standards with different concentration were sealed with sealing tapes, respectively, incubation was performed at 37° C. for 90 min; the plate was washed four times; a biotinylated antibody working solution (100 μL/well) was added, the reaction well was sealed with sealing tapes, and incubation was performed at 37° C. for 60 min; the plate was washed four times; an enzyme conjugate working solution (100 μL/well) was added, the reaction well was sealed with sealing tapes, incubation was performed at 37° C. for 30 min; the plate was washed four times; a developer (100 μL/well) was added, incubation was performed at 37° C. away from light for 10 to 20 min, a stop solution (100 μL/well) was added and mixed, and the OD450 value was measured.

[2] = test system: peritoneal capillary permeability in mice; assay: Peritoneal capillary permeability in mice (Evans blue, HAc); assay type: in vivo, Kunming mice; conditions: for PI (%): exudation
Protocol: The drug was administered once by injection every 5 days, and the blank model group was given an equal volume of physiological saline for 5 days and fed normally. On the 5th day after the administration, a 5 g/L of Evans blue physiological saline solution was injected into the tail vein at […], followed by intraperitoneal injection ([…]) HAc solution (6 mL/L) to induce inflammation. After 20 min, the mice were sacrificed by cervical dislocation. 5 mL of physiological saline was intraperitoneally injected, the abdomen was gently rubbed for 2 min, the abdominal cavity was cut, a peritoneal washing solution was collected and centrifuged at 4000 rpm for 10 min, 1 mL of supernatant was taken, and 3 mL of physiological saline was added to obtain a 4 mL of dilution. The absorbance OD value of the dilution was measured by an ultraviolet spectrophotometer at a wavelength of 590 nm, and the amount of pigment exudation was expressed by the OD590 nm value, and peritoneal capillary permeability in mice was examined.

[3] = test system: toe swelling in rat induced by carrageenan; assay: Acute inflammation of toe swelling in rat induced by carrageenan; assay type: in vivo, SD rats
Protocol: 80 SD rats were randomly divided into 8 groups with 10 mice for each group. […] The drug was administered once by injection every 5 days, and the model group was given an equal volume of physiological saline for 3 days and fed normally. On the third day after the administration, 0.1 mL of 1% carrageenan was injected subcutaneously into the right hind toes of the rats to induce inflammation. The foot volume was measured at 1 h, 3 h, 5 h, and 7 h after inflammation. The swelling degree of the foot was calculated according to the following formula: the swelling degree of the foot (mL)=the volume of the foot after inflammation−the volume before inflammation. The number of milliliters of spilled liquid was recorded (method: the protruding point of the right joint was circled with a ballpoint pen and used as a measurement mark, and the right hind feet of the rats were sequentially placed in the volume measuring device, so that the hind limbs were exposed outside the cylinder, and the depth of the immersion was limited to the overlap of the circle and the liquid level. After the foot entered the liquid, the liquid level was raised, and the volume of the spilled liquid was the volume of the right hind foot of the rat, and the normal volume of the right hind foot of each mouse is sequentially determined).

[4] = test system: angiogenesis of chicken embryo chorioallantoic membrane; assay: Chicken embryo chorioallantoic membrane (CAM) angiogenesis assay; assay type: in vivo, White Leghorn chicken embryos; conditions: 72 hours; for PI (%): CAM blood vessels; for Blood vessel number: CAM
Protocol: The study has shown that the biosynthesis rate of collagen reached the maximum on the 8th to 11th day of chicken embryo development, which was the most vigorous stage of angiogenesis, and the body's immune system had not yet been fully established at that time, and thus the chicken embryos developed to the 8th day was selected to be administered. […] The following steps were used:
(1) The White Leghorn chicken embryos on day 6 were cultured in a 37° C. incubator at 60%-70% humidity for two days.
(2) A 1.0 cm×1.0 cm window was drilled above the chicken embryo air sac, and the inner membrane was torn off with forceps to expose the chorioallantoic membrane. Lens paper having a diameter of 5 mm was used as a loading carrier, and was placed on the chorioallantoic membrane of the chicken embryo air sac. Filter paper with PBS was used as a blank group, and an administration group was added with different doses of fusion protein.
(3) The chicken embryo air sac was sealed with a sterile transparent tape, and after culturing at 37° C. for 72 hours, the chicken embryo air sac was opened, and a fixative (formaldehyde:acetone=1:1) was added for fixation for 15 minutes. The chorioallantoic membrane to which the lens paper was adhered was taken out, the distribution of the new blood vessels was observed, and the new blood vessels were counted and photographed. Five replicates were set for each dose and the results were statistically analyzed.

[5] = 32 mg/kg, 1 h after carrageenan
[6] = 32 mg/kg, 3 h after carrageenan
[7] = 32 mg/kg, 5 h after carrageenan
[8] = 32 mg/kg, 7 h after carrageenan
[9] = 128 mg/kg, 1 h after carrageenan
[10] = 128 mg/kg, 3 h after carrageenan
[11] = 128 mg/kg, 5 h after carrageenan
[12] = 128 mg/kg, 7 h after carrageenan

B1: Protein II: Fc fusion protein Fc-IL4DM-HM3: IgG1-Fc, IL-4 and HM-3 joined by rigid (R) linker; SEQ ID NO: 2 (protein)
chain: [gap - human IgG1 Fc]AEAAAKEAAAKEAAAKEAAAKAHKCDITLQEIIKTLNSLTEQKTLCTELTVTDIFAASKNTTEKETFCRAATVLRQFYSHHEKDTRCLGATAQQFHRHKQLIRFLKRLDRNLWGLAGLNSCPVKEANQSTLENFLERLKTIMDEKDSKCSSAEAAAKEAAAKEAAAKEAAAKAIVRRADRAAVPGGGGRGD
- IL-1β ([1]; 8 μg/mL): 755.56 ± 17.82 pg/mL
- IL-1β ([1]; 32 μg/mL): 610.06 ± 19.97 pg/mL
- IL-1β ([1]; 128 μg/mL): 468.96 ± 12.59 pg/mL
- PI (%) ([1]; 8 μg/mL): 12.24%
- PI (%) ([1]; 32 μg/mL): 29.14%
- PI (%) ([1]; 128 μg/mL): 45.53%
- Exudation rate (OD590) ([2]; 8 mg/kg by injection): 0.55 ± 0.07
- Exudation rate (OD590) ([2]; 32 mg/kg by injection): 0.42 ± 0.09
- Exudation rate (OD590) ([2]; 128 mg/kg by injection): 0.31 ± 0.06
- PI (%) ([2]; 8 mg/kg): 16.67%
- PI (%) ([2]; 32 mg/kg): 36.36%
- PI (%) ([2]; 128 mg/kg): 53.03%
- Swelling degree ([3]; 8 mg/kg, 1 h after carrageenan): 0.26 ± 0.13 mL
- Swelling degree ([3]; 8 mg/kg, 3 h after carrageenan): 0.42 ± 0.12 mL
- Swelling degree ([3]; 8 mg/kg, 5 h after carrageenan): 0.42 ± 0.13 mL
- Swelling degree ([3]; 8 mg/kg, 7 h after carrageenan): 0.38 ± 0.08 mL
- Swelling degree [3, 5]: 0.25 ± 0.21 mL
- Swelling degree [3, 6]: 0.30 ± 0.14 mL
- Swelling degree [3, 7]: 0.35 ± 0.09 mL
- Swelling degree [3, 8]: 0.32 ± 0.19 mL
- Swelling degree [3, 9]: 0.27 ± 0.05 mL
- Swelling degree [3, 10]: 0.32 ± 0.15 mL
- Swelling degree [3, 11]: 0.33 ± 0.10 mL
- Swelling degree [3, 12]: 0.31 ± 0.16 mL
- PI (%) ([4]; 8 μg): 20.45%
- PI (%) ([4]; 32 μg): 34.85%
- PI (%) ([4]; 128 μg): 47.73%
- PI (%) ([4]; 128 μg, listed as protein II): ~50%
- Blood vessel number ([4]; 8 μg): 105 ± 12
- Blood vessel number ([4]; 32 μg): 86 ± 13
- Blood vessel number ([4]; 128 μg): 69 ± 8

B2: Protein I: Fc fusion protein Fc-IL4DM-HM3: IgG1-Fc, IL-4 and HM-3 joined by flexible (F) linker; SEQ ID NO: 1 (protein)
chain: [gap - human IgG1 Fc]GGGGSGGGGSGGGGSHKCDITLQEIIKTLNSLTEQKTLCTELTVTDIFAASKNTTEKETFCRAATVLRQFYSHHEKDTRCLGATAQQFHRHKQLIRFLKRLDRNLWGLAGLNSCPVKEANQSTLENFLERLKTIMDEKDSKCSSGGGGSGGGGSGGGGSIVRRADRAAVPGGGGRGD
- IL-1β ([1]; 8 μg/mL): 722.85 ± 9.95 pg/mL
- IL-1β ([1]; 32 μg/mL): 495.30 ± 14.58 pg/mL
- IL-1β ([1]; 128 μg/mL): 322.56 ± 13.52 pg/mL
- PI (%) ([1]; 8 μg/mL): 16.04%
- PI (%) ([1]; 32 μg/mL): 42.47%
- PI (%) ([1]; 128 μg/mL): 62.53%
- Exudation rate (OD590) ([2]; 8 mg/kg by injection): 0.59 ± 0.02
- Exudation rate (OD590) ([2]; 32 mg/kg by injection): 0.46 ± 0.02
- Exudation rate (OD590) ([2]; 128 mg/kg by injection): 0.35 ± 0.05
- PI (%) ([2]; 8 mg/kg): 10.61%
- PI (%) ([2]; 32 mg/kg): 30.30%
- PI (%) ([2]; 128 mg/kg): 46.97%
- Swelling degree ([3]; 8 mg/kg, 1 h after carrageenan): 0.27 ± 0.13 mL
- Swelling degree ([3]; 8 mg/kg, 3 h after carrageenan): 0.41 ± 0.15 mL
- Swelling degree ([3]; 8 mg/kg, 5 h after carrageenan): 0.44 ± 0.15 mL
- Swelling degree ([3]; 8 mg/kg, 7 h after carrageenan): 0.35 ± 0.09 mL
- Swelling degree [3, 5]: 0.29 ± 0.07 mL
- Swelling degree [3, 6]: 0.36 ± 0.21 mL
- Swelling degree [3, 7]: 0.37 ± 0.14 mL
- Swelling degree [3, 8]: 0.34 ± 0.11 mL
- Swelling degree [3, 9]: 0.28 ± 0.15 mL
- Swelling degree [3, 10]: 0.32 ± 0.08 mL
- Swelling degree [3, 11]: 0.34 ± 0.21 mL
- Swelling degree [3, 12]: 0.32 ± 0.18 mL
- PI (%) ([4]; 8 μg): 32.58%
- PI (%) ([4]; 32 μg): 38.64%
- PI (%) ([4]; 128 μg): 58.33%
- PI (%) ([4]; 128 μg, listed as fusion protein I): ~50%
- Blood vessel number ([4]; 8 μg): 89 ± 8
- Blood vessel number ([4]; 32 μg): 81 ± 3
- Blood vessel number ([4]; 128 μg): 55 ± 10
